The results in this text go back to PMC4336329 (PLoS ONE, 2015).

Structures are written as SMILES. Hit rate of the full screen: of about 310,000 compounds, about 14,000 (4.5%) showed an effect of 50% or more. Effects have a minus sign here. The list shows a part of the results.
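Further: peak tail current of the secondary pulse compared with the same well before compound.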

human ether-à-go-go-related gene (hERG) potassium channel, sequence (Q12809 whole entry, looked up): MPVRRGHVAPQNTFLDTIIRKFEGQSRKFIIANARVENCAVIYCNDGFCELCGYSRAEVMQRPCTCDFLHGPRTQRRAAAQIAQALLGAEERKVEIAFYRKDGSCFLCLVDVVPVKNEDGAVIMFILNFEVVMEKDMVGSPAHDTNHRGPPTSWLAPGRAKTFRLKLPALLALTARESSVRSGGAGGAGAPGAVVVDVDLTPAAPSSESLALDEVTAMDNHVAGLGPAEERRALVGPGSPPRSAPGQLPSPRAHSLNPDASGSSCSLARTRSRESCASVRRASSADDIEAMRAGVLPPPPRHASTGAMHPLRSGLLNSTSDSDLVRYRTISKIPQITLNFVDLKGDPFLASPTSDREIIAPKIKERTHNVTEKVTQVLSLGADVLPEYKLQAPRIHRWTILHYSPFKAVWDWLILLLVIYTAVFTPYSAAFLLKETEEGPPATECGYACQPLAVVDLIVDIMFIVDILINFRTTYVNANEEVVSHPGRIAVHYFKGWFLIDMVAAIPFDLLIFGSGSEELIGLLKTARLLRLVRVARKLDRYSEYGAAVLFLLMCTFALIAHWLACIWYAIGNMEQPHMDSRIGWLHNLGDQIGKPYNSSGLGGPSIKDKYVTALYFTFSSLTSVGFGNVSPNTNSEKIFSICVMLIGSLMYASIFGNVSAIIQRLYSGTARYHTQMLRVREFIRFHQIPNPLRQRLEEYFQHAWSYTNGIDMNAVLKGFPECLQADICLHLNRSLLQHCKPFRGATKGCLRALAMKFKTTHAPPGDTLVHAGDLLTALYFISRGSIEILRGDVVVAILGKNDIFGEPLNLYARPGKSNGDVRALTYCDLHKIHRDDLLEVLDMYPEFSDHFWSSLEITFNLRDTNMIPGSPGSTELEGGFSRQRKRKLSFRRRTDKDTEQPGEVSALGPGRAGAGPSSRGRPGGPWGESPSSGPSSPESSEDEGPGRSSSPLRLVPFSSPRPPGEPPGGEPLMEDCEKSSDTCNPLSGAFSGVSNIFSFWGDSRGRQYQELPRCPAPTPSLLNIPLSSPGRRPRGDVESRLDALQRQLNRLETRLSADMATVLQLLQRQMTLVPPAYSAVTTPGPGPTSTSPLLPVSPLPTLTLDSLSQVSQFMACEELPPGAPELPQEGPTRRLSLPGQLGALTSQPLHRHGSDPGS

The experiment addresses human ether-à-go-go-related gene (hERG) potassium channel (human, UniProt Q12809). The experiment is described as follows: primary screen, population patch clamp on CHO cells stably expressing hERG.
`c1ccc(-c2nnc(NC3=NCCC3)o2)cc1`: the “hERG current change (%, negative = inhibition) at 10uM” value was 31.3%.

On to `CCNC(=S)N(CCN(CC)CC)Cc1cc2cc3c(cc2[nH]c1=O)OCO3`, for which the “hERG current change (%, negative = inhibition) at 10uM” value was determined as 0.779%.

As for `COc1ccc2oc(C(=O)OCC(=O)N3CCCCC3)c(C)c2c1`, the “hERG current change (%, negative = inhibition) at 10uM” value is recorded as 8.71%.

Take `CCN(CCn1cccn1)C(=O)CC1C(=O)NCCN1Cc1ccc(OC)c(OC)c1` (stereo not shown): the “hERG current change (%, negative = inhibition) at 10uM” value is listed as 4.47%.

Take `Cc1ccc(C(=O)n2nc(-c3cccnc3)nc2N)cc1`: the “hERG current change (%, negative = inhibition) at 10uM” value amounted to 12.5%.

In the case of `CCN(C(=O)COC(=O)Cn1cnc2c1c(=O)n(C)c(=O)n2C)C1CCS(=O)(=O)C1` (stereo not shown), the “hERG current change (%, negative = inhibition) at 10uM” value came out at 7.26%.

On to `COc1ccc(CNC(=O)/C=C/c2ccco2)cc1OC`, for which the “hERG current change (%, negative = inhibition) at 10uM” value was 1.27%.

In the case of `CC(C)CNC(=O)COc1ccccc1[N+](=O)[O-]`, the “hERG current change (%, negative = inhibition) at 10uM” value was 9.7%.

For the molecule `CC(=O)NC1C(=O)N=C(SCC(=O)Nc2cccc(Cl)c2)NC1=O` (stereo not shown), the “hERG current change (%, negative = inhibition) at 10uM” value was 13%.

For the molecule `CC(C)C(=O)Nc1nnc(CCN(CCc2nnc(NC(=O)C(C)C)s2)[N+](=O)[O-])s1`, the “hERG current change (%, negative = inhibition) at 10uM” value stood at 5.19%.

Consider `CC(C)(C)OC(=O)N1CCN(C(=O)OCC2c3ccccc3-c3ccccc32)CC1C(=O)O` (stereo not shown), for which the “hERG current change (%, negative = inhibition) at 10uM” value stood at 17.7%.

Regarding `O=C(COc1ccc(Br)cc1)Nc1ccc(Cc2ccncc2)cc1`, the “hERG current change (%, negative = inhibition) at 10uM” value is reported as -35.6%.

Consider `O=C(Nc1ccc2c(c1)oc1ccccc12)N1CCOCC1`, for which the “hERG current change (%, negative = inhibition) at 10uM” value is recorded as -9.91%.

As to `CC(C)CCN1C(=O)c2ccc(C(=O)Nc3ccccn3)cc2C1=O`, the “hERG current change (%, negative = inhibition) at 10uM” value was 9.58%.

On to `Cc1ccc(C(=O)N/N=C/c2c[nH]c3ccccc23)o1`, for which the “hERG current change (%, negative = inhibition) at 10uM” value was 12.5%.

On to `CN1CCN(CCNC(=O)Nc2ccc([N+](=O)[O-])cc2)CC1`, for which the “hERG current change (%, negative = inhibition) at 10uM” value is recorded as -25.7%.

On to `COc1ccccc1C(=O)N(NC(=O)Oc1ccccc1)C(C)(C)C`, for which the “hERG current change (%, negative = inhibition) at 10uM” value was 16.5%.

Regarding `CN(C)C(=O)Oc1ccc2ccccc2c1Cl`, the “hERG current change (%, negative = inhibition) at 10uM” value was -8.69%.

In the case of `Cn1c(-c2ccc3ccccc3n2)nc2cnccc21`, the “hERG current change (%, negative = inhibition) at 10uM” value is -6%.

Regarding `CC(C)c1cc(C(C)C)c(S(=O)(=O)NNC(=O)c2ccncc2)c(C(C)C)c1`, the “hERG current change (%, negative = inhibition) at 10uM” value was -24.9%.

As for `Cc1ccc(C2=CC(=O)C[C@H](c3ccc(F)cc3)C2)cc1`, the “hERG current change (%, negative = inhibition) at 10uM” value was found to be 19.4%.

On to `COCCCn1nnnc1SCC(=O)Nc1ccc2c(c1)OCCO2`, for which the “hERG current change (%, negative = inhibition) at 10uM” value was -2.04%.

As to `CC1=C(C(=O)Nc2cccc(C(=O)NC3CCCC(C)C3C)c2)SCCO1` (stereo not shown), the “hERG current change (%, negative = inhibition) at 10uM” value is listed as -20.9%.

Consider `Cc1cccc(-n2ncc3c(N(CCO)CCO)ncnc32)c1`, for which the “hERG current change (%, negative = inhibition) at 10uM” value is on record as 8.3%.

For the molecule `COc1ccc(OC)c(C(=O)NC(CC(N)=O)c2ccc(N3CCC(N4CCCCC4)CC3)c([N+](=O)[O-])c2)c1` (stereo not shown), the “hERG current change (%, negative = inhibition) at 10uM” value came to 8.2%.

Take `COc1ccc(N=C2NC(=O)/C(=C/C=C/c3ccccc3)S2)cc1`: the “hERG current change (%, negative = inhibition) at 10uM” value turned out to be 14%.

As for `O=C(c1cc(Br)ccc1Cl)N1CCN(c2ccc(N3CCOCC3)nn2)CC1`, the “hERG current change (%, negative = inhibition) at 10uM” value is reported as -17.4%.

With `Cc1ccc(OCCn2cnc(Cl)c2Cl)cc1`, the “hERG current change (%, negative = inhibition) at 10uM” value is listed as -15.2%.

For the molecule `C/C(=N/NC(=O)c1ccncc1)c1ccc(NC(=O)c2ccc(Cl)cc2Cl)cc1`, the “hERG current change (%, negative = inhibition) at 10uM” value is listed as 20.5%.

For `N/C(=N\OC(=O)COc1ccccc1)c1ccncc1`, the “hERG current change (%, negative = inhibition) at 10uM” value is recorded as -3.13%.

On to `O=C(NNC(=O)C1CC1c1ccccc1)c1cccc([N+](=O)[O-])c1` (stereo not shown), for which the “hERG current change (%, negative = inhibition) at 10uM” value is -4.13%.

With `COC(=O)c1c(C)oc(C)c1S(=O)(=O)NCC1CC1`, the “hERG current change (%, negative = inhibition) at 10uM” value is 4.91%.

Regarding `CCOC(=O)c1c(C)[nH]c(C(=O)COC(=O)/C=C/c2cccc(OC)c2OC)c1C`, the “hERG current change (%, negative = inhibition) at 10uM” value is recorded as -1.93%.

As for `CCCN(CCC)S(=O)(=O)c1ccc(C)cc1`, the “hERG current change (%, negative = inhibition) at 10uM” value came out at 6.02%.

On to `COc1cc(/C=C2\SC(c3ccc(C)cc3)=NC2=O)cc(OC)c1O`, for which the “hERG current change (%, negative = inhibition) at 10uM” value was 8.85%.

With `Cc1ccc(NC(=O)CSc2nnc(CNC(=O)c3cccs3)o2)c(C)c1`, the “hERG current change (%, negative = inhibition) at 10uM” value is reported as 6.79%.

`O=C(COC(=O)COc1ccc2ccccc2c1)NC1CCCc2ccccc21` (stereo not shown): the “hERG current change (%, negative = inhibition) at 10uM” value was 6.02%.

Take `O=C1NC(c2ccccc2)=CC(c2ccccc2)N1` (stereo not shown): the “hERG current change (%, negative = inhibition) at 10uM” value is reported as 20.8%.

As for `On1c(-c2ccc(Cl)cc2)nc2ccccc21`, the “hERG current change (%, negative = inhibition) at 10uM” value is given as 13.9%.

Consider `Cc1ccc(N=C2S/C(=C\c3cn(CC(=O)O)c4ccccc34)C(=O)N2C)cc1`, for which the “hERG current change (%, negative = inhibition) at 10uM” value is listed as 17.5%.

`O=C(CN(Cc1ccccc1)C(=O)CCC(=O)Nc1nccs1)NCC1CCCO1` (stereo not shown): the “hERG current change (%, negative = inhibition) at 10uM” value is recorded as 13%.

Regarding `Cc1cc(C(=O)Cn2nnc(-c3ccc(Cl)cc3)n2)c(C)n1CC1CCCO1` (stereo not shown), the “hERG current change (%, negative = inhibition) at 10uM” value was -6.08%.

For the molecule `CN1c2ccc(C=O)c3c(C=O)ccc(c23)N(C)C1(C)C`, the “hERG current change (%, negative = inhibition) at 10uM” value is -34.5%.

`CCOC(=O)C1CCCN(C(=O)c2cc(Nc3ccc(OC)cc3)nc3ccccc23)C1` (stereo not shown): the “hERG current change (%, negative = inhibition) at 10uM” value is listed as -15%.

In the case of `Cc1cc(C)cc(N(CC(=O)NC2CCCC2)C(=O)CCC(=O)Nc2cc(C)ccn2)c1`, the “hERG current change (%, negative = inhibition) at 10uM” value is listed as 12.2%.

Turning to `CCCn1c(C2CCCN2c2nc(-c3cccc(Br)c3)cs2)nc2cc(Cl)c(Cl)cc21` (stereo not shown), the “hERG current change (%, negative = inhibition) at 10uM” value stood at 15.9%.
